# Source: the supplement of paper PMC8728848
# This is one part of the list.
# B1: DCAL1 (Homo sapiens), Q8IZS7 (protein)
# chain: MVSNFFHVIQVFEKSATLISKTEHIGFVIYSWRKSTTHLGSRRKFAISIYLSEVSLQKYDCPFSGTSFVVFSLFLICAMAGDVVYADIKTVRTSPLELAFPLQRSVSFNFSTVHKSCPAKDWKVHKGKCYWIAETKKSWNKSQNDCAINNSYLMVIQDITAMVRFNI
# Columns and labels:
# Experiment in all cases: glycan array binding signal (z-score within array); higher = stronger binding
# Settings in all cases: glycan notation: IUPAC condensed, linker removed
# [1] = biological target: Man(a1-3)[Man(a1-6)]Man(a1-6)[Man(a1-2)Man(a1-3)]Man(b1-4)GlcNAc(b1-4)GlcNAc
# Procedure, shortened: (§1)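 The binding signal is a Z-score computed within each array. Data were drawn from 3228 arrays in the Consortium for Functional Glycomics database, restricted to those with a known protein sequence. Scores were averaged over arrays of the same protein sequence at different concentrations or buffers, and over linkers, and negative values can be taken as non-binding.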
# [2] = biological target: Man(a1-3)[Man(a1-6)]Man(a1-6)[Man(a1-3)]Man(b1-4)GlcNAc(b1-4)GlcNAc
# Procedure, shortened: as §1
# [3] = biological target: Man(a1-3)[Man(a1-6)]Man(b1-4)GlcNAc(b1-4)GlcNAc
# Procedure, shortened: as §1
# Man(b1-4)GlcNAc = biological target: Man(b1-4)GlcNAc
# Procedure, shortened: as §1
# Neu5Ac(a2-3)Gal = biological target: Neu5Ac(a2-3)Gal
# Procedure, shortened: as §1
# [4] = biological target: Neu5Ac(a2-3)Gal(b1-3)GalNAc
# Procedure, shortened: as §1
# [5] = biological target: Neu5Ac(a2-3)Gal(b1-3)GalNAc(b1-3)Gal(a1-4)Gal(b1-4)Glc
# Procedure, shortened: as §1
# [6] = biological target: Neu5Ac(a2-3)Gal(b1-3)GalNAc(b1-3)Gal(b1-4)GlcNAc
# Procedure, shortened: as §1
# [7] = biological target: Neu5Ac(a2-3)Gal(b1-3)GalNAc(b1-4)[Neu5Ac(a2-3)]Gal(b1-4)Glc
# Procedure, shortened: as §1
# [8] = biological target: Neu5Ac(a2-3)Gal(b1-3)GalNAc6S
# Procedure, shortened: as §1
# [9] = biological target: Neu5Ac(a2-3)Gal(b1-3)GlcNAc
# Procedure, shortened: as §1
# [10] = biological target: Neu5Ac(a2-3)Gal(b1-3)GlcNAc6S
# Procedure, shortened: as §1
# [11] = biological target: Neu5Ac(a2-3)Gal(b1-3)[Fuc(a1-4)]GlcNAc
# Procedure, shortened: as §1
# [12] = biological target: Neu5Ac(a2-3)Gal(b1-3)[Fuc(a1-4)]GlcNAc(b1-3)Gal(b1-4)[Fuc(a1-3)]GlcNAc
# Procedure, shortened: as §1
# [13] = biological target: Neu5Ac(a2-3)Gal(b1-3)[Neu5Ac(a2-3)Gal(b1-4)]GlcNAc
# Procedure, shortened: as §1
# [14] = biological target: Neu5Ac(a2-3)Gal(b1-3)[Neu5Ac(a2-6)]GalNAc
# Procedure, shortened: as §1
# Neu5Ac(a2-3)Gal(b1-4)Glc = biological target: Neu5Ac(a2-3)Gal(b1-4)Glc
# Procedure, shortened: as §1
# [15] = biological target: Neu5Ac(a2-3)Gal(b1-4)GlcNAc
# Procedure, shortened: as §1
# [16] = biological target: Neu5Ac(a2-3)Gal(b1-4)GlcNAc(b1-3)Gal(b1-4)GlcNAc
# Procedure, shortened: as §1
# [17] = biological target: Neu5Ac(a2-3)Gal(b1-4)GlcNAc(b1-3)Gal(b1-4)GlcNAc(b1-3)Gal(b1-4)GlcNAc
# Procedure, shortened: as §1
# [18] = biological target: Neu5Ac(a2-3)Gal(b1-4)GlcNAc(b1-3)Gal(b1-4)[Fuc(a1-3)]GlcNAc
# Procedure, shortened: as §1
# [19] = biological target: Neu5Ac(a2-3)Gal(b1-4)GlcNAc6S
# Procedure, shortened: as §1
# [20] = biological target: Neu5Ac(a2-3)Gal(b1-4)[Fuc(a1-3)]GlcNAc
# Procedure, shortened: as §1
# [21] = biological target: Neu5Ac(a2-3)Gal(b1-4)[Fuc(a1-3)]GlcNAc(b1-3)Gal
# Procedure, shortened: as §1
# [22] = biological target: Neu5Ac(a2-3)Gal(b1-4)[Fuc(a1-3)]GlcNAc(b1-3)Gal(b1-4)GlcNAc
# Procedure, shortened: as §1
# [23] = biological target: Neu5Ac(a2-3)Gal(b1-4)[Fuc(a1-3)]GlcNAc(b1-3)Gal(b1-4)[Fuc(a1-3)]GlcNAc(b1-3)Gal(b1-4)[Fuc(a1-3)]GlcNAc
# Procedure, shortened: as §1
# [24] = biological target: Neu5Ac(a2-3)Gal(b1-4)[Fuc(a1-3)]GlcNAc6S
# Procedure, shortened: as §1
# [25] = biological target: Neu5Ac(a2-3)Gal6S(b1-4)GlcNAc
# Procedure, shortened: as §1
# [26] = biological target: Neu5Ac(a2-3)Gal6S(b1-4)[Fuc(a1-3)]GlcNAc
# Procedure, shortened: as §1
# Neu5Ac(a2-3)GalNAc = biological target: Neu5Ac(a2-3)GalNAc
# Procedure, shortened: as §1
# [27] = biological target: Neu5Ac(a2-3)GalNAc(b1-4)GlcNAc
# Procedure, shortened: as §1
# [28] = biological target: Neu5Ac(a2-3)[GalNAc(b1-4)]Gal(b1-4)Glc
# Procedure, shortened: as §1
# [29] = biological target: Neu5Ac(a2-3)[GalNAc(b1-4)]Gal(b1-4)GlcNAc
# Procedure, shortened: as §1
# [30] = biological target: Neu5Ac(a2-3)[Neu5Ac(a2-6)]GalNAc
# Procedure, shortened: as §1
# Neu5Ac(a2-6)Gal = biological target: Neu5Ac(a2-6)Gal
# Procedure, shortened: as §1
# Neu5Ac(a2-6)Gal(b1-4)Glc = biological target: Neu5Ac(a2-6)Gal(b1-4)Glc
# Procedure, shortened: as §1
# [31] = biological target: Neu5Ac(a2-6)Gal(b1-4)GlcNAc
# Procedure, shortened: as §1
# [32] = biological target: Neu5Ac(a2-6)Gal(b1-4)GlcNAc(b1-2)Man(a1-3)[Neu5Ac(a2-6)Gal(b1-4)GlcNAc(b1-2)Man(a1-6)]Man(b1-4)GlcNAc(b1-4)GlcNAc
# Procedure, shortened: as §1
# [33] = biological target: Neu5Ac(a2-6)Gal(b1-4)GlcNAc(b1-3)Gal(b1-4)GlcNAc
# Procedure, shortened: as §1
# [34] = biological target: Neu5Ac(a2-6)Gal(b1-4)GlcNAc(b1-3)Gal(b1-4)[Fuc(a1-3)]GlcNAc(b1-3)Gal(b1-4)[Fuc(a1-3)]GlcNAc
# Procedure, shortened: as §1
# [35] = biological target: Neu5Ac(a2-6)Gal(b1-4)GlcNAc6S
# Procedure, shortened: as §1
# Neu5Ac(a2-6)GalNAc = biological target: Neu5Ac(a2-6)GalNAc
# Procedure, shortened: as §1
# [36] = biological target: Neu5Ac(a2-6)GalNAc(b1-4)GlcNAc
# Procedure, shortened: as §1
# Neu5Ac(a2-8)Neu5Ac = biological target: Neu5Ac(a2-8)Neu5Ac
# Procedure, shortened: as §1
# [37] = biological target: Neu5Ac(a2-8)Neu5Ac(a2-3)Gal(b1-4)Glc
# Procedure, shortened: as §1
binder,measurement,setting,value
B1,glycan array binding signal (z-score),[1],-0.171
same,glycan array binding signal (z-score),[2],-0.211
same,glycan array binding signal (z-score),[3],-0.241
same,glycan array binding signal (z-score),Man(b1-4)GlcNAc,-0.341
same,glycan array binding signal (z-score),Neu5Ac(a2-3)Gal,-0.264
same,glycan array binding signal (z-score),[4],-0.194
same,glycan array binding signal (z-score),[5],-0.212
same,glycan array binding signal (z-score),[6],-0.256
same,glycan array binding signal (z-score),[7],-0.271
same,glycan array binding signal (z-score),[8],-0.149
same,glycan array binding signal (z-score),[9],-0.253
same,glycan array binding signal (z-score),[10],-0.231
same,glycan array binding signal (z-score),[11],-0.236
same,glycan array binding signal (z-score),[12],-0.264
same,glycan array binding signal (z-score),[13],-0.289
same,glycan array binding signal (z-score),[14],-0.213
same,glycan array binding signal (z-score),Neu5Ac(a2-3)Gal(b1-4)Glc,-0.211
same,glycan array binding signal (z-score),[15],-0.2
same,glycan array binding signal (z-score),[16],-0.253
same,glycan array binding signal (z-score),[17],-0.229
same,glycan array binding signal (z-score),[18],-0.269
same,glycan array binding signal (z-score),[19],-0.184
same,glycan array binding signal (z-score),[20],-0.192
same,glycan array binding signal (z-score),[21],-0.265
same,glycan array binding signal (z-score),[22],-0.191
same,glycan array binding signal (z-score),[23],-0.127
same,glycan array binding signal (z-score),[24],-0.181
same,glycan array binding signal (z-score),[25],-0.159
same,glycan array binding signal (z-score),[26],-0.155
same,glycan array binding signal (z-score),Neu5Ac(a2-3)GalNAc,-0.273
same,glycan array binding signal (z-score),[27],-0.21
same,glycan array binding signal (z-score),[28],-0.321
same,glycan array binding signal (z-score),[29],-0.221
same,glycan array binding signal (z-score),[30],-0.241
same,glycan array binding signal (z-score),Neu5Ac(a2-6)Gal,-0.275
same,glycan array binding signal (z-score),Neu5Ac(a2-6)Gal(b1-4)Glc,-0.221
same,glycan array binding signal (z-score),[31],-0.212
same,glycan array binding signal (z-score),[32],-0.205
same,glycan array binding signal (z-score),[33],-0.203
same,glycan array binding signal (z-score),[34],-0.132
same,glycan array binding signal (z-score),[35],-0.012
same,glycan array binding signal (z-score),Neu5Ac(a2-6)GalNAc,0.533
same,glycan array binding signal (z-score),[36],-0.309
same,glycan array binding signal (z-score),Neu5Ac(a2-8)Neu5Ac,-0.225
same,glycan array binding signal (z-score),[37],-0.146
